{"source": "the supplement of paper PMC8728848", "binders": {"B1": {"name": "CCL2 (Coprinopsis cinerea), B3GA02 (protein)", "chain": "MDSPAVTLSAGNYIIYNRVLSPRGEKLALTYPGRQRTPVTVSPLDGSSEQAWILRSYDSNSNTWTISPVGSPNSQIGWGAGNVPVVLPPNNYVWTLTLTSGGYNIQDGKRTVSWSLNNATAGEEVSIGADATFSGRWVIEKV"}}, "test_in_all_cases": "glycan array binding signal (z-score within array); higher = stronger binding", "settings_in_all_cases": "glycan notation: IUPAC condensed, linker removed", "key": {"[1]": {"biological_target": "Gal4S(b1-4)GlcNAc", "in_short": "(§1)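 Columns mapping to the same glycan were averaged after glycan names were converted to IUPAC-condensed notation. The data come from 3228 arrays in the Consortium for Functional Glycomics database, limited to those with an available protein sequence. Binding is reported as a within-array Z-score averaged across arrays of one protein sequence and across linkers.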"}, "[2]": {"biological_target": "Gal4S6S(b1-4)GlcNAc", "in_short": "as §1"}, "[3]": {"biological_target": "Gal6S(b1-4)Glc", "in_short": "as §1"}, "[4]": {"biological_target": "Gal6S(b1-4)Glc6S", "in_short": "as §1"}, "[5]": {"biological_target": "Gal6S(b1-4)GlcNAc", "in_short": "as §1"}, "[6]": {"biological_target": "Gal6S(b1-4)GlcNAc6S", "in_short": "as §1"}, "[7]": {"biological_target": "GalNAc(a1-3)Gal", "in_short": "as §1"}, "[8]": {"biological_target": "GalNAc(a1-3)GalNAc", "in_short": "as §1"}, "[9]": {"biological_target": "GalNAc(b1-3)Gal", "in_short": "as §1"}, "[10]": {"biological_target": "GalNAc(b1-3)Gal(a1-4)Gal(b1-4)GlcNAc", "in_short": "as §1"}, "[11]": {"biological_target": "GalNAc(b1-3)Gal(a1-4)Gal(b1-4)GlcNAc(b1-3)Gal(b1-4)Glc", "in_short": "as §1"}, "[12]": {"biological_target": "GalNAc(b1-3)GalNAc", "in_short": "as §1"}, "[13]": {"biological_target": "GalNAc(b1-4)GlcNAc", "in_short": "as §1"}, "[14]": {"biological_target": "GalNAc(b1-4)GlcNAc(b1-2)Man(a1-3)[GalNAc(b1-4)GlcNAc(b1-2)Man(a1-6)]Man(b1-4)GlcNAc(b1-4)GlcNAc", "in_short": "as §1"}, "[15]": {"biological_target": "Glc(a1-4)Glc", "in_short": "as §1"}, "[16]": {"biological_target": "Glc(a1-6)Glc(a1-6)Glc", "in_short": "as §1"}, "[17]": {"biological_target": "Glc(b1-4)Glc", "in_short": "as §1"}, "[18]": {"biological_target": "Glc(b1-6)Glc", "in_short": "as §1"}, "[19]": {"biological_target": "GlcA(b1-3)Gal", "in_short": "as §1"}, "[20]": {"biological_target": "GlcA(b1-3)GlcNAc", "in_short": "as §1"}, "[21]": {"biological_target": "GlcA(b1-6)Gal", "in_short": "as §1"}, "[22]": {"biological_target": "GlcNAc(a1-3)Gal(b1-4)GlcNAc", "in_short": "as §1"}, "[23]": {"biological_target": "GlcNAc(a1-4)Gal(b1-3)GlcNAc", "in_short": "as §1"}, "[24]": {"biological_target": "GlcNAc(a1-4)Gal(b1-4)GalNAc", "in_short": "as §1"}, "[25]": {"biological_target": "GlcNAc(a1-4)Gal(b1-4)GlcNAc", "in_short": "as §1"}, "[26]": {"biological_target": "GlcNAc(a1-4)Gal(b1-4)GlcNAc(b1-3)Gal(b1-4)Glc", "in_short": "as §1"}, "[27]": {"biological_target": "GlcNAc(a1-4)Gal(b1-4)GlcNAc(b1-3)Gal(b1-4)GlcNAc", "in_short": "as §1"}, "[28]": {"biological_target": "GlcNAc(a1-4)Gal(b1-4)GlcNAc(b1-3)Gal(b1-4)GlcNAc(b1-3)Gal(b1-4)GlcNAc", "in_short": "as §1"}, "[29]": {"biological_target": "GlcNAc(a1-4)Gal(b1-4)GlcNAc(b1-3)Gal(b1-4)[Fuc(a1-3)]GlcNAc(b1-3)Gal(b1-4)[Fuc(a1-3)]GlcNAc", "in_short": "as §1"}, "[30]": {"biological_target": "GlcNAc(a1-6)Gal(b1-4)GlcNAc", "in_short": "as §1"}, "[31]": {"biological_target": "GlcNAc(b1-2)Gal(b1-3)GalNAc", "in_short": "as §1"}, "[32]": {"biological_target": "GlcNAc(b1-2)Man(a1-3)[GlcNAc(b1-2)Man(a1-6)]Man(b1-4)GlcNAc(b1-4)GlcNAc", "in_short": "as §1"}, "[33]": {"biological_target": "GlcNAc(b1-2)Man(a1-3)[GlcNAc(b1-2)Man(a1-6)]Man(b1-4)GlcNAc(b1-4)[Fuc(a1-6)]GlcNAc", "in_short": "as §1"}, "[34]": {"biological_target": "GlcNAc(b1-3)Gal", "in_short": "as §1"}, "[35]": {"biological_target": "GlcNAc(b1-3)Gal(b1-3)GalNAc", "in_short": "as §1"}, "[36]": {"biological_target": "GlcNAc(b1-3)Gal(b1-4)Glc", "in_short": "as §1"}, "[37]": {"biological_target": "GlcNAc(b1-3)Gal(b1-4)GlcNAc", "in_short": "as §1"}, "[38]": {"biological_target": "GlcNAc(b1-3)Gal(b1-4)GlcNAc(b1-3)Gal(b1-4)GlcNAc", "in_short": "as §1"}, "[39]": {"biological_target": "GlcNAc(b1-3)GalNAc", "in_short": "as §1"}, "[40]": {"biological_target": "GlcNAc(b1-3)Man", "in_short": "as §1"}, "[41]": {"biological_target": "GlcNAc(b1-3)[GlcNAc(b1-4)][GlcNAc(b1-6)]GlcNAc", "in_short": "as §1"}, "[42]": {"biological_target": "GlcNAc(b1-3)[GlcNAc(b1-6)]Gal(b1-4)GlcNAc", "in_short": "as §1"}, "[43]": {"biological_target": "GlcNAc(b1-3)[GlcNAc(b1-6)]GalNAc", "in_short": "as §1"}, "[44]": {"biological_target": "GlcNAc(b1-4)Gal(b1-4)GlcNAc", "in_short": "as §1"}, "[45]": {"biological_target": "GlcNAc(b1-4)GlcNAc", "in_short": "as §1"}}, "note": "The other results are listed elsewhere or left out.", "data": [{"binder": "B1", "values": [{"measurement": "glycan array binding signal (z-score)", "setting": "[1]", "result": -0.26}, {"measurement": "glycan array binding signal (z-score)", "setting": "[2]", "result": -0.276}, {"measurement": "glycan array binding signal (z-score)", "setting": "[3]", "result": -0.268}, {"measurement": "glycan array binding signal (z-score)", "setting": "[4]", "result": -0.267}, {"measurement": "glycan array binding signal (z-score)", "setting": "[5]", "result": -0.288}, {"measurement": "glycan array binding signal (z-score)", "setting": "[6]", "result": -0.2}, {"measurement": "glycan array binding signal (z-score)", "setting": "[7]", "result": -0.282}, {"measurement": "glycan array binding signal (z-score)", "setting": "[8]", "result": -0.284}, {"measurement": "glycan array binding signal (z-score)", "setting": "[9]", "result": -0.268}, {"measurement": "glycan array binding signal (z-score)", "setting": "[10]", "result": -0.279}, {"measurement": "glycan array binding signal (z-score)", "setting": "[11]", "result": -0.3}, {"measurement": "glycan array binding signal (z-score)", "setting": "[12]", "result": -0.289}, {"measurement": "glycan array binding signal (z-score)", "setting": "[13]", "result": -0.279}, {"measurement": "glycan array binding signal (z-score)", "setting": "[14]", "result": -0.277}, {"measurement": "glycan array binding signal (z-score)", "setting": "[15]", "result": -0.298}, {"measurement": "glycan array binding signal (z-score)", "setting": "[16]", "result": -0.3}, {"measurement": "glycan array binding signal (z-score)", "setting": "[17]", "result": -0.3}, {"measurement": "glycan array binding signal (z-score)", "setting": "[18]", "result": -0.292}, {"measurement": "glycan array binding signal (z-score)", "setting": "[19]", "result": -0.273}, {"measurement": "glycan array binding signal (z-score)", "setting": "[20]", "result": -0.286}, {"measurement": "glycan array binding signal (z-score)", "setting": "[21]", "result": -0.284}, {"measurement": "glycan array binding signal (z-score)", "setting": "[22]", "result": -0.29}, {"measurement": "glycan array binding signal (z-score)", "setting": "[23]", "result": -0.264}, {"measurement": "glycan array binding signal (z-score)", "setting": "[24]", "result": -0.268}, {"measurement": "glycan array binding signal (z-score)", "setting": "[25]", "result": -0.281}, {"measurement": "glycan array binding signal (z-score)", "setting": "[26]", "result": -0.271}, {"measurement": "glycan array binding signal (z-score)", "setting": "[27]", "result": -0.169}, {"measurement": "glycan array binding signal (z-score)", "setting": "[28]", "result": -0.272}, {"measurement": "glycan array binding signal (z-score)", "setting": "[29]", "result": 2.32}, {"measurement": "glycan array binding signal (z-score)", "setting": "[30]", "result": -0.285}, {"measurement": "glycan array binding signal (z-score)", "setting": "[31]", "result": -0.277}, {"measurement": "glycan array binding signal (z-score)", "setting": "[32]", "result": -0.257}, {"measurement": "glycan array binding signal (z-score)", "setting": "[33]", "result": -0.26}, {"measurement": "glycan array binding signal (z-score)", "setting": "[34]", "result": -0.296}, {"measurement": "glycan array binding signal (z-score)", "setting": "[35]", "result": -0.263}, {"measurement": "glycan array binding signal (z-score)", "setting": "[36]", "result": -0.293}, {"measurement": "glycan array binding signal (z-score)", "setting": "[37]", "result": -0.291}, {"measurement": "glycan array binding signal (z-score)", "setting": "[38]", "result": -0.284}, {"measurement": "glycan array binding signal (z-score)", "setting": "[39]", "result": -0.299}, {"measurement": "glycan array binding signal (z-score)", "setting": "[40]", "result": -0.302}, {"measurement": "glycan array binding signal (z-score)", "setting": "[41]", "result": -0.292}, {"measurement": "glycan array binding signal (z-score)", "setting": "[42]", "result": -0.295}, {"measurement": "glycan array binding signal (z-score)", "setting": "[43]", "result": -0.277}, {"measurement": "glycan array binding signal (z-score)", "setting": "[44]", "result": -0.297}, {"measurement": "glycan array binding signal (z-score)", "setting": "[45]", "result": -0.296}]}]}
